Tests used:
[1] = target: T1, mouse IL-2Rαβγc (on CTLL2-STAT5 reporter cells) (mouse, UniProt P01590 22-268; P16297 27-539; P34902 23-369); assay: cell-based or functional assay
T1 sequence (looked up) 1: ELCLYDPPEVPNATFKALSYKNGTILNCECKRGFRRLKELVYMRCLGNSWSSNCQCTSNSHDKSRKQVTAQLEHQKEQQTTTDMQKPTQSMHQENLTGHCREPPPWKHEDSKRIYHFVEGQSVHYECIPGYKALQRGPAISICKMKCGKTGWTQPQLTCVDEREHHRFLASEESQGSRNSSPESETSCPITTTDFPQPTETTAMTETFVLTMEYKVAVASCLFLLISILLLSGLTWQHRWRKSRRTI
T1 sequence (looked up) 2: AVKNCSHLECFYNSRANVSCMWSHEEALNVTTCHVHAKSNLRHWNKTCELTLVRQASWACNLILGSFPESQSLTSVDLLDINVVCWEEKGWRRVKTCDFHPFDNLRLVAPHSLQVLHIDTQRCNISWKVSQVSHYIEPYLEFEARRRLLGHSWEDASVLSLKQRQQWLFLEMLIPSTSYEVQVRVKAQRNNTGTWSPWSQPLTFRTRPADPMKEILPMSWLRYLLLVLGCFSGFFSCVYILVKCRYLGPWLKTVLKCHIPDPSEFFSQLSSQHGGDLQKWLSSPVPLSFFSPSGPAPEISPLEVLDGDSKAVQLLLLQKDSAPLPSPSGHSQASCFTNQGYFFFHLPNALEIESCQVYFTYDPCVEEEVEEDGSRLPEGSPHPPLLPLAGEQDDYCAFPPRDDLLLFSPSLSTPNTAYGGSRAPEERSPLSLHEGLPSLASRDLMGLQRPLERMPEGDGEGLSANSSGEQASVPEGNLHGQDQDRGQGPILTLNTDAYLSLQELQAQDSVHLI
T1 sequence (looked up) 3: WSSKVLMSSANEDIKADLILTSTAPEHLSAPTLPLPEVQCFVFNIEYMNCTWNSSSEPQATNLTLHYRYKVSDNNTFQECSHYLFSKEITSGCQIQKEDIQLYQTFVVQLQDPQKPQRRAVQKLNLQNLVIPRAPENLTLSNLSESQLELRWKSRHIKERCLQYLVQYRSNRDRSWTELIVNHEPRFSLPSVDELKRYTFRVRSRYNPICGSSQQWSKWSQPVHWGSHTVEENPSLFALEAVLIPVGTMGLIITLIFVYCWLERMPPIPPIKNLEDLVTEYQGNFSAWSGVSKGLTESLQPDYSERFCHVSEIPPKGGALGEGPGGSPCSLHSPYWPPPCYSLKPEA

[2] = target: T2, human IL-2Rβγc (on DERL-7 cells, U2OS IL2RB/IL2RG cells, CD25 knockout Kit225-STAT5 cells, primary CD8+ CTLs) (human, UniProt P14784 27-551; P31785 23-369); assay: cell-based or functional assay
T2 sequence (looked up) 1: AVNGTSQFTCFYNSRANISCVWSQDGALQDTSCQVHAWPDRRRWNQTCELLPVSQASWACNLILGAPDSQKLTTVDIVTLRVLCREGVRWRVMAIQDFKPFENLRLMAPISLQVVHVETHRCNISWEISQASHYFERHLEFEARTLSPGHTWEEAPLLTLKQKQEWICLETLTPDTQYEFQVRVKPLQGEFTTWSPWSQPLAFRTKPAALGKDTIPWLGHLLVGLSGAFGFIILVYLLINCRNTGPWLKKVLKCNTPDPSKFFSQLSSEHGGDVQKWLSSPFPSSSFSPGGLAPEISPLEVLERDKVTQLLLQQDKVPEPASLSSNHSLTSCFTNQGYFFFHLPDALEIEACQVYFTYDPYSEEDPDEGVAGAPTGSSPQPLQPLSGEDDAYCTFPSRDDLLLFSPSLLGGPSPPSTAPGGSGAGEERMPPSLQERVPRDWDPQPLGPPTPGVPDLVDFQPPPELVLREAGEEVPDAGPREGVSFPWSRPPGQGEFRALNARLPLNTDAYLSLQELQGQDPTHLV
T2 sequence (looked up) 2: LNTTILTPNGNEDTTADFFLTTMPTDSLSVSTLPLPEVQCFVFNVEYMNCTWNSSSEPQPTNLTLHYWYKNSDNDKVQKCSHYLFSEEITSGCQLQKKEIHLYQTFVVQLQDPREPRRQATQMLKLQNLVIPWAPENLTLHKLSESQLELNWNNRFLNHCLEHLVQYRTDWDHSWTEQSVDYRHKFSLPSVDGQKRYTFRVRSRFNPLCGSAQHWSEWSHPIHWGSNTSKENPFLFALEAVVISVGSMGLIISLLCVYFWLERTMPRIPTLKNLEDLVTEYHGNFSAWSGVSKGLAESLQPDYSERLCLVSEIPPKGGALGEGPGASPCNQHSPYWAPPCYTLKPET

B1: Aldesleukin (DesA1_IL-2_C124S) (ligand)
chain: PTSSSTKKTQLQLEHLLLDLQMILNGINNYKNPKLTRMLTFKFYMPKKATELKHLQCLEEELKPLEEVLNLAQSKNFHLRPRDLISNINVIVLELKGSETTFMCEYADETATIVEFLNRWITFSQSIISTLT
CTLL2-STAT5 EC50 [1]: 12 pM
U2OS-IL2Rbg EC50 [2]: 813 pM

Reference: patent US20210340207A1 (Merck Sharp & Dohme, published 2021)
